The labels stand for the following.
B1: LINE1-mini (parent)
chain: GGCAGAGCUCAACACAGCGUGGCAAAGUGGCUGUGGCUAGACUGCC

Read counts are not given, so values of variants with three or more changes are uncertain.

Variants of B1 are the subject of the data set. The experiment in a line: self-cleavage, relative activity (ratio to wild type); higher = more cleavage; in vitro, sequencing; the parent is a self-cleaving ribozyme.
G30C C31A U32A U34C G36U U43C: the self-cleavage came to 0.02.

Turning to G27U U28G A39G G44C, the self-cleavage was determined as 0.01.

U28G G35U A39U: the self-cleavage stood at 0.04.

As for G29C G33U A41U, the self-cleavage was determined as 0.14.

G29C G33U G36U A39G: the self-cleavage came to 0.08.

On to U28C A41U C45G, for which the self-cleavage amounted to 0.04.

Take U28G C37A U38A C46U: the self-cleavage is 0.01.

On to G30A U32G G33A G36U G40A, for which the self-cleavage worked out at 0.06.

G27U U38C A41U C42G: the self-cleavage was 0.04.

Take G29U C31G G35C: the self-cleavage was found to be 0.08.

As for U28A G35A G40U, the self-cleavage was 0.1.

Turning to G29U A39U C46G, the self-cleavage is 0.04.

G29U G33C C46A: the self-cleavage turned out to be 0.02.

Regarding G30U A41C C45U, the self-cleavage was found to be 0.02.

In the case of C31A A41C C45A C46A, the self-cleavage turned out to be 0.04.

As for C31A C37U U43C, the self-cleavage was 0.08.

U28G C31A G35A C42G: the self-cleavage is 0.04.

With G29U G30C C31A G40U, the self-cleavage is 0.04.

In the case of G30A U34A G35A U38A, the self-cleavage amounted to 0.

On to U28A G30A A41G, for which the self-cleavage is 0.06.

As for G30A A39C G40A, the self-cleavage stood at 0.17.

Consider G30A A39C G40C, for which the self-cleavage was determined as 0.06.

For G29C U32A G35A, the self-cleavage was 0.05.

Take U28G G33A G36U G40U: the self-cleavage stood at 0.04.

For the variant U28G C31G U32A, the self-cleavage is 0.41.

Consider G30U U38C A41G C46U, for which the self-cleavage was determined as 0.17.

As to G30U U32G U38A, the self-cleavage is 0.14.

With U28A G30A U38C, the self-cleavage was found to be 0.18.

Consider G30U G33U G36A C42A, for which the self-cleavage worked out at 0.04.

Consider G30C U43G G44A, for which the self-cleavage turned out to be 0.24.

As to U28G G29C C42U, the self-cleavage stood at 0.08.

As to U28G G29C C42G, the self-cleavage was 0.01.

For C31A C37A U38C G44U, the self-cleavage came to 0.05.

In the case of G30C C31U U34G, the self-cleavage is 0.03.

Regarding U28C C31A G33C A39C, the self-cleavage is 0.03.

Regarding G27U G29U C42A, the self-cleavage turned out to be 0.16.

Consider G30A U38G C42G, for which the self-cleavage turned out to be 0.

Take G29A G33C A39U A41U C42A: the self-cleavage amounted to 0.02.

As for G30U C31G G36A G40C U43A, the self-cleavage was determined as 0.04.

On to U28G G29C G30C, for which the self-cleavage came to 0.2.

Consider U28A G29U C37A, for which the self-cleavage is 0.01.

Consider G27U U38G U43C, for which the self-cleavage came to 0.01.

As for G30A U34A G36C, the self-cleavage is 0.02.

On to G29C U32C A39C, for which the self-cleavage is 0.17.

Turning to G29C U34G A39G, the self-cleavage stood at 0.03.

Turning to G29A C31A G40C, the self-cleavage worked out at 0.1.

For the variant G29A G30C G40U G44U, the self-cleavage worked out at 0.11.

Consider G30U U38C G40A, for which the self-cleavage was found to be 0.19.

In the case of G30A C31A C42G, the self-cleavage was 0.04.

Regarding G30A C31A C42A, the self-cleavage stood at 0.05.

In the case of U28A G40C C45U, the self-cleavage came to 0.15.

For the variant G29A C31A C37U, the self-cleavage amounted to 0.13.

On to U28A C31A G35A G36A U43G, for which the self-cleavage was 0.07.

U28A A39C U43C: the self-cleavage was found to be 0.1.

Regarding U28G G40U G44C, the self-cleavage amounted to 0.05.

In the case of U28A G33A U34C, the self-cleavage came out at 0.05.

G27U G30A G33C: the self-cleavage came to 0.06.

As to G30U C31U G33C, the self-cleavage is 0.02.

As to U28G U43C C45A, the self-cleavage was 0.07.

With G30A G33C C46U, the self-cleavage was determined as 0.06.

As for U28C G29U G35C A41G, the self-cleavage stood at 0.03.

Consider U28G G36U C37A, for which the self-cleavage worked out at 0.05.

G29C G36A A39G: the self-cleavage stood at 0.04.

With U28G G33U G36U G40C, the self-cleavage is 0.03.

Consider G29A C37G C42U, for which the self-cleavage is 0.09.

As to U28C G35U G40A, the self-cleavage turned out to be 0.11.

As for U28G U38C A41C, the self-cleavage was 0.02.

Consider G30C G33A A41U, for which the self-cleavage was 0.17.

For the variant G29C G36U C45U, the self-cleavage was 0.06.

As for U28A G33U G40U C42G, the self-cleavage stood at 0.08.

As to G27U G30U A39C C45G, the self-cleavage was 0.37.

Take G29U A41U G44A: the self-cleavage was 0.08.

G30U C42U U43C: the self-cleavage came out at 0.07.

Regarding G30U G33C C37G C45U, the self-cleavage came out at 0.02.

Turning to G27U G40U C42A, the self-cleavage is 0.14.

Take G29A A39C G40U: the self-cleavage came out at 0.05.

Consider G29A G40U C45U, for which the self-cleavage was 0.34.

For G29C G30C C46A, the self-cleavage stood at 0.17.

G29C G35U A41U: the self-cleavage is 0.04.

As to G29A A41U C42G C45U, the self-cleavage came out at 0.25.

Take U28A G30U C31U G44U C46U: the self-cleavage was found to be 0.01.

Take G29A G35C U38C C46G: the self-cleavage stood at 0.

Turning to U28A G36U C42U, the self-cleavage came out at 0.07.

On to G27U C42G C46U, for which the self-cleavage was 0.04.

As for G29A U43G C45A, the self-cleavage is 0.02.

For the variant U28A G35A A39G, the self-cleavage amounted to 0.05.

Regarding U28C C45U C46G, the self-cleavage stood at 0.65.

Regarding G30A U34G A39G, the self-cleavage came to 0.09.

As for G30A U32C G35A C37A, the self-cleavage was 0.04.

Consider G30U A41G C46A, for which the self-cleavage was 0.21.

For the variant G30A A39G C45U, the self-cleavage was 0.03.

G29A C31G A41G: the self-cleavage was determined as 0.02.

In the case of U28C C31U G35C G44A, the self-cleavage stood at 0.12.

G27U G29U G33C: the self-cleavage came out at 0.08.

Turning to U28A G29U C37A A41C, the self-cleavage was determined as 0.01.

On to U28G G29C U38G, for which the self-cleavage was 0.

Consider G29U C31U C37A, for which the self-cleavage was found to be 0.06.

For the variant G29U G33U U38G, the self-cleavage came out at 0.01.

Regarding G29A G30A A39U G44U, the self-cleavage is 0.19.

As for G27U G29C C42G G44A, the self-cleavage came to 0.02.

In the case of G30C U38A C42G, the self-cleavage came to 0.08.

Regarding G29C G30U C42U, the self-cleavage was 0.12.

In the case of G30C G40U G44C, the self-cleavage came to 0.03.

On to U28G G29U G35A, for which the self-cleavage stood at 0.07.

Regarding G27U U28C U32G, the self-cleavage was found to be 0.28.

U28A U32A G35C C42A: the self-cleavage came out at 0.02.

Consider G30A G33C G36C, for which the self-cleavage is 0.03.

In the case of U28G A39C G40A, the self-cleavage was 0.

For the variant G27U U34C C42U, the self-cleavage came to 0.03.

For the variant G29U U34C G40C, the self-cleavage came out at 0.02.

As for G29U C37A G40C C46G, the self-cleavage was determined as 0.05.

Regarding G30U C31U U43A, the self-cleavage was found to be 0.27.

As for U28G G30A C46A, the self-cleavage was 0.27.

In the case of U28A G44U C46U, the self-cleavage was determined as 0.04.

Regarding U28A G33C U34A G36A C37G A41G, the self-cleavage was determined as 0.02.

Regarding G30A U32A G35A, the self-cleavage came out at 0.03.

Regarding G30A U32A G35U, the self-cleavage worked out at 0.02.

Turning to U28C G33C C46G, the self-cleavage stood at 0.02.

Turning to G27U U28C A41C C42G, the self-cleavage is 0.02.

As to G29A U38A A41G, the self-cleavage turned out to be 0.09.

As for G30C G36C C42G, the self-cleavage turned out to be 0.02.

In the case of G29C G33A G40C, the self-cleavage is 0.06.

As to G27U U38A C45A, the self-cleavage amounted to 0.18.

Consider G29A C37A G40A A41C, for which the self-cleavage was found to be 0.06.

As for G29A A39U C46G, the self-cleavage was 0.08.

Take G30U U32A U38C: the self-cleavage came to 0.05.

G30C C37G A41U: the self-cleavage came out at 0.04.

In the case of U28G G30C G36U, the self-cleavage was 0.22.

With U28G G30C G36A, the self-cleavage is 0.03.

As for G30C A39G G40C, the self-cleavage was found to be 0.22.

As to G30A U32G A41C C45U, the self-cleavage was determined as 0.02.

Take U28G C37A U38G: the self-cleavage was 0.

In the case of G30U C31U U38C, the self-cleavage came to 0.06.

For the variant G30C C37U C45U, the self-cleavage was found to be 0.14.

G27U G29C U38A: the self-cleavage came to 0.24.

U28G G30A G36C U38C: the self-cleavage was 0.03.

Consider G30U G36C U38C C46A, for which the self-cleavage is 0.04.

For the variant G29U U34G A39U, the self-cleavage was determined as 0.16.

With C31A A39U A41G, the self-cleavage is 0.31.

As for G29C A39U C42U G44A C46U, the self-cleavage was determined as 0.01.

Regarding U28C G36U U38A C42U, the self-cleavage turned out to be 0.03.

As to G30C U38G U43C, the self-cleavage amounted to 0.

Consider G29A A41C C46A, for which the self-cleavage worked out at 0.06.

Consider U28G C31U G40U U43C, for which the self-cleavage stood at 0.

On to G30U G35U C45U, for which the self-cleavage came to 0.15.

Take G27U U32G A41C: the self-cleavage was determined as 0.03.

For the variant G30A G33U G36C C37A C45G, the self-cleavage amounted to 0.

Turning to G27U U32A A41U, the self-cleavage turned out to be 0.09.

Take U28C G33U C37G G40A: the self-cleavage worked out at 0.05.

With G30C A41C G44A, the self-cleavage amounted to 0.04.

As for G30A G33U U34C, the self-cleavage was 0.24.

Consider G29U G33A U34G, for which the self-cleavage is 0.04.

G30C C37A C42A: the self-cleavage is 0.22.

For U28C G40U U43C, the self-cleavage stood at 0.22.

Take G27U U34G G35U U43A: the self-cleavage worked out at 0.03.

Turning to U28G G29A G30A A41G, the self-cleavage was determined as 0.03.

As for G27U C42U C46A, the self-cleavage came to 0.09.

For the variant G30U C31G G36U, the self-cleavage was determined as 0.05.

As to G27U U32C C37A C46U, the self-cleavage amounted to 0.03.

Take G30C U32G G33C: the self-cleavage is 0.04.

Regarding G29U G36C A39G C46A, the self-cleavage was determined as 0.06.

Turning to G29U U38A C45A, the self-cleavage stood at 0.09.

With U28C G36C C42G, the self-cleavage came out at 0.01.

On to G30C A39C U43A, for which the self-cleavage came to 0.4.

In the case of G27U U28A C46U, the self-cleavage stood at 1.14.

G29A U32C G35C: the self-cleavage turned out to be 0.04.

Take G29C U34A U38G A39U: the self-cleavage was determined as 0.17.

The values are drawn from the RNAGym collection of RNA variant scans (doi:10.7554/elife.90254).
